The values that follow come from article PMC12136788.

First the molecules themselves.
B1: chr19:15272971:15273072:-|CDS|ENSG00000141867|msi1|total|mutant (ssRNA)
RNA: GGGAGUUCUACAGUCCGACGAUCGUCUGCGGAGAGCGGCCCUGGGACGAGAUUGAGAAAUCUGCCAGUAAUGGGGGAUGGACCCGAAACUUCCCAAAUGUCUACAACACAGGCCCAGGCCCAACCCCAGCCAGCCAACGCAGCCAACAGAGGAUUGAGCAUCA
B2: ENSG00000070961:be:win_6201|3pUTR|ENSG00000070961|bound_else_gene|NA|bound_elsewhere_windowed (ssRNA)
RNA: GGGAGUUCUACAGUCCGACGAUCAUCCCAAAUGUUUUUAAUCUUUGUAUAUUUUUUAAAAAUCCUUUUCUCCUCAUCAUUGCCUUUUUUGUGGUUGUAAAUAGACUUACUUGCACUUUGAAGAUGAGUUACUCCUUGUCAUCUCAACAGAGGAUUGAGCAUCA
B3: chr2:55866929:55867030:-|3pUTR|ENSG00000115380|msi1|FALSE|unique (ssRNA)
RNA: GGGAGUUCUACAGUCCGACGAUCAUUUAAGUCAGCCAAAGAAUAUUGUUACCUUAAAGCACUAUUUUAUUUAUAGAUAUAUCUAGUGCAUCUACAUCUCUAUACUGUACACUCACCCAUAAUUCAAACAAUUACACCAUGGUACAACAGAGGAUUGAGCAUCA
B4: chr6:119178661:119178762:-|3pUTR|ENSG00000111885|msi1|FALSE|unique (ssRNA)
RNA: GGGAGUUCUACAGUCCGACGAUCGAAAGAAGCUUUGCCAAUUUUACUUAUUCGUGAUCAAUCAAGGAAAAUCUAAUAAAUUUUAGGCCAAAUAAGAAUAUAGCAUAUUUAGUAUGGUUAUAGUCAACACAGAGAUCACAACUUCAACAGAGGAUUGAGCAUCA
B5: ENSG00000070961:be:win_6051|3pUTR|ENSG00000070961|bound_else_gene|NA|bound_elsewhere_windowed (ssRNA)
RNA: GGGAGUUCUACAGUCCGACGAUCCAGAAAUUUCCAGAGCAUUAUGUAGGUAGAAAAAAAUGCAAGCAAGCUGUUAAAGAUCUUGGAUCCCAUUAUAUAGUAUGUAUAGCUGAAAUCUGUAAUUCAAUCACUUUUUCUCUUUUACAACAGAGGAUUGAGCAUCA
B6: chr8:17299120:17299221:-|3pUTR|ENSG00000003987|unk|total|mutant (ssRNA)
RNA: GGGAGUUCUACAGUCCGACGAUCUCCUCAUUAUUUAAAAAUGCUAAACCUUGUAUCUCACUUUUUCUCUAACACUGAUUUAACCGCUAACGAGGCCGAAGCAACAUUCAUUCUCCUGGUCUUACAUAUGAAUUUAAGUAUCAGCAACAGAGGAUUGAGCAUCA
B7: chr19:1230895:1231275:-|CDS|ENSG00000099625|control|control|control (ssRNA)
RNA: GGGAGUUCUACAGUCCGACGAUCUCAGUAGAUGGAGGUGCUAGGGGUGGACCUGUGGGCCCUUGCCCCCCUUCGCCCCCCCCUAGGCGGCCCAGGGAGCGCUCUCCAGGCCCCGUGGACACGCGCUCGCCUGCCUCCAGCGGCCAACAGAGGAUUGAGCAUCA
B8: ENSG00000136451:be:win_1151|CDS|ENSG00000136451|bound_else_gene|NA|bound_elsewhere_windowed (ssRNA)
RNA: GGGAGUUCUACAGUCCGACGAUCUGUGCCAAACCUCCACGGCUGCUACGACACCUGUGACUCUCACUACUCCAUUCAGUAUAACAUCCUCUGUGUCGUCUGGGACUAUGUCAAACCCAGUCACAGUGGCAGCUGCAAUGAGCACAACAGAGGAUUGAGCAUCA
B9: chrX:153695679:153695780:+|3pUTR|ENSG00000130821|msi1|total|mutant (ssRNA)
RNA: GGGAGUUCUACAGUCCGACGAUCGGCAGCAGAACCAAGGCAAAUAUUUCAGCUGGGCUAUACCCCUCUCCCCAUCCCUGUUACCGAAGCUCCGAGAGCCAGCCAGCAAUGGAACCUUCUGGUUCCUGCGCCAAUCGCCACCAGCAACAGAGGAUUGAGCAUCA
B10: chr17:1004907:1005008:-|3pUTR|ENSG00000159842|msi1|total|mutant (ssRNA)
RNA: GGGAGUUCUACAGUCCGACGAUCAAGAGGGGCCAGGCUUCCUGGAGGGUGACUGAUGUGGCCGAAGCAGGUGUCCAGGCAGGCCGGCUGCAGCCAGGAGCUCCCUGGCACCGCAGGACCUCGUGGUACUCUUGCCUCCGAUUUCAACAGAGGAUUGAGCAUCA
B11: chr4:112276399:112276500:-|3pUTR|ENSG00000145365|unk|FALSE|unique (ssRNA)
RNA: GGGAGUUCUACAGUCCGACGAUCUUAUUCCCUGUGAUGCCCAGAGUAAUGGCCCAUCCAAAGAUGUCCAGAUGUCCAUGUGCUAGUCUCCAGAACUUGUAACUGUGUUGUUAUGUGGCAAAGGGGAAUGAAGGCUGCAGAUGGCAACAGAGGAUUGAGCAUCA
B12: chr6:149889094:149889339:-|three_prime_utr|ENSG00000164520|control|control|control (ssRNA)
RNA: GGGAGUUCUACAGUCCGACGAUCGGCAGCUCCCUUUAAAGGUCAAAAGCCUUCCCUGUGUGGGUGUCAGUGUGUGUGUGCGAUAGAAAAUUUGAUUGACUUCUCCGUGGGCUUCCUGUCUGGAGAGUCAGUGAUGGCUAUAAGCAACAGAGGAUUGAGCAUCA
B13: chr1:64777895:64778004:+|CDS|ENSG00000162437|unk|total|mutant (ssRNA)
RNA: GGGAGUUCUACAGUCCGACGAUCGGAUUUGUGGAAUACAUGAAAAAGGACUUUGCUGCAAAGGCCCGACUGGAGCUAUUGGGCCGACAGUUGGGAGCAUCAGCACUCUUUGCACAAUGGAUGGAUGUUAAUCUAUUGGCUUCACAACAGAGGAUUGAGCAUCA
B14: ENSG00000136451:be:win_401|CDS|ENSG00000136451|bound_else_gene|NA|bound_elsewhere_windowed (ssRNA)
RNA: GGGAGUUCUACAGUCCGACGAUCGCAUCUUGUCAACAGUCACUACAUCUUCCUCGGGCACCAACCCCAGUAGCAGUGCCAGCACCACAGCUAUGCCAGUGACCCAGUCUGUCAAGAAACCCAGUAAGCCUGUCAAGAAGAACCCAACAGAGGAUUGAGCAUCA
B15: ENSG00000123684:stop:overlap|stop_codon|ENSG00000123684|stop_codon|NA|stop_codon (ssRNA)
RNA: GGGAGUUCUACAGUCCGACGAUCCAUUUUUGUCAGGCUAUAUGUGGUACAACAUCAUUCAGUAUUUUUACCAUUGCCUGUUUUAGGAAUUGACGUGGACUUGUCAAGGUCACCGUAGGAGUUCAGACUUUCUUUCAUAAGUGUCAACAGAGGAUUGAGCAUCA
B16: chr1:205620050:205620151:-|CDS|ENSG00000158711|unk|FALSE|unique (ssRNA)
RNA: GGGAGUUCUACAGUCCGACGAUCGCCAAUGGAACUUCCAGAGAAUUUGUCACUGGAGCCUAAAGACCAGGAUUCAGUCUUGCUAGAAAAGGACAAAGUAAAUAAUUCAUCAAGAUCCAAGAAACCCAAAGGGUUAGAACUGGCCAACAGAGGAUUGAGCAUCA
B17: chr12:121847077:121847190:-|CDS|ENSG00000158104|unk|FALSE|unique (ssRNA)
RNA: GGGAGUUCUACAGUCCGACGAUCAAAAACCUGCAGUUCCACCGCUUCUGGUCCGUGGAUGACACGCAGGUGCACACGGAAUAUAGCUCUCUGCGAUCCAUUGUGGUGGCCAACUAUGAAGAGUCCAUCAAGAUGCCCAUCAAUCAACAGAGGAUUGAGCAUCA
B18: chr11:61865769:61866452:+|3pUTR|ENSG00000134824|msi1|total|mutant (ssRNA)
RNA: GGGAGUUCUACAGUCCGACGAUCUGCAGCCUGGUCACCCGGCAUCACCCCCGCUUUGGUUCUUCAGAUGCUCUUGGGGUUCACCGGGGCAGGUCCCCGUCGGGCAGGGCCCCUGACCCUCCCGGCCUGGCUUCACUCUCCCUGCAACAGAGGAUUGAGCAUCA
B19: chr3:125228010:125228111:-|3pUTR|ENSG00000163848|msi1|FALSE|unique (ssRNA)
RNA: GGGAGUUCUACAGUCCGACGAUCAGUUCUCUUCAUAUUUCAUAACUACAUUUCAAUAAUUCUAAACUUUCUACAUUGAUUUUUAGAUACUUAUUUUUCAAGCUUGGUUUCUCAGCUGAUCAGAUGAAUUUAUUCAACUUCAAUCAACAGAGGAUUGAGCAUCA
B20: chr14:102081487:102081564:-|3pUTR|ENSG00000080824|msi1_unk|FALSE|overlapping (ssRNA)
RNA: GGGAGUUCUACAGUCCGACGAUCGAAGAUAAGAUUUCUGUCUACUAAGUGAUGCUGUGAUACCUUAGGCACUAAAGCAGAGCUAGUAAUGCUUUUUGAGUUUCAUGUUGGUUUAUUUUCACAGAUUGGGGUAACGUGCACUGUCAACAGAGGAUUGAGCAUCA
B21: chr8:47773456:47773635:-|3pUTR|ENSG00000253729|msi1_unk|total|mutant (ssRNA)
RNA: GGGAGUUCUACAGUCCGACGAUCGUUUUUUCCUUUCAUUUUAUUCUCUUCCCGUUUUGACAUUUUAUGACCGAUUUGCUCUCCCGAAGGAAACGUCUUUAUUCCGGAGGGCAAAAAUUUUGGUCACCGCAUUCACUUUUGCUACAACAGAGGAUUGAGCAUCA
B22: chr7:106091418:106091523:-|3pUTR|ENSG00000008282|msi1|FALSE|unique (ssRNA)
RNA: GGGAGUUCUACAGUCCGACGAUCUUUACACCUUAAGCCUUAACAUGUAUCUUCAUUCAGAAAACAGUUAUAUUGUCAUACCAUAGUAGGAAGAAAAACCUUUAUUUGGAAUAUACACUACUGUAAGUUUGUACAGAUCAUAUACAACAGAGGAUUGAGCAUCA

The list shows a part of the results.

For this assay, the target named is MSI1 full-length (mouse, UniProt Q61474 1-362). The experiment in a line: nsRBNS (natural sequence RNA bind-n-seq); RBNS binding buffer (assumed for nsRBNS): 25 mM Tris pH 7.5, 150 mM KCl, 3 mM MgCl2, 0.01% Triton X-100, 500 ug/ml BSA, 20 U/ml SUPERase-In, 4 C; UNK is unkempt and MSI1 is Musashi-1; names of the RNAs are library labels; protein concentration not given here; high values mean tight binding.
UniProt Q61474, sequence (Q61474 whole entry): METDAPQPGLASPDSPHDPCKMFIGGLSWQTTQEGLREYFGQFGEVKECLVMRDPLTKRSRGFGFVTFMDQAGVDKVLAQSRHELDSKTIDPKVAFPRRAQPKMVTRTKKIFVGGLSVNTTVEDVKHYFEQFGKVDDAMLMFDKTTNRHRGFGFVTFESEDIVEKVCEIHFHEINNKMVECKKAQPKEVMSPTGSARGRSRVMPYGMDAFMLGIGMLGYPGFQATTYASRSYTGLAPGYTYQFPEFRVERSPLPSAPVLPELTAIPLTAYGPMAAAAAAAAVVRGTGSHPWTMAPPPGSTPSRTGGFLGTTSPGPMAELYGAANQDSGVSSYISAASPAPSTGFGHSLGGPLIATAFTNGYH
In turn, B1 registered a binding signal of 0.563 enrichment R. As to B2, the binding signal amounted to 2.22 enrichment R. The molecule B3 had a binding signal of 1.56 enrichment R. B4 yielded a binding signal of 6.72 enrichment R.

Molecule B5 registered a binding signal of 37.4 enrichment R. Then B6, with 6.95 enrichment R; and B7, with 0.332 enrichment R. As for B8, the binding signal is 0.425 enrichment R. The result for B9 reads 0.58 enrichment R; that for B10, 0.486 enrichment R; that for B11, 0.384 enrichment R. B12: the binding signal amounted to 0.676 enrichment R. Consider B13, for which the binding signal is 0.272 enrichment R. The result for B14 reads 0.559 enrichment R; that for B15, 0.394 enrichment R; that for B16, 1.02 enrichment R. The result for B17 reads 0.296 enrichment R.

For the molecule B18, the binding signal was 0.458 enrichment R. Then B19, with 5.53 enrichment R. Then B20, with 0.492 enrichment R. Regarding B21, the binding signal amounted to 0.727 enrichment R. Then B22, with 0.951 enrichment R.
